Measurements from article PMC4336329 (PLoS ONE, 2015).
Screen size: about 310,000 compounds; about 14,000 (4.5%) showed an effect of 50% or more. Effects have a minus sign here. This is one part of the list.

These compounds were tested against human ether-à-go-go-related gene (hERG) potassium channel (human, UniProt Q12809) (assay: primary screen, population patch clamp on CHO cells stably expressing hERG).
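Also: peak tail current of the secondary pulse compared with the same well before compound.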

Sequence of human ether-à-go-go-related gene (hERG) potassium channel (Q12809 whole entry, looked up): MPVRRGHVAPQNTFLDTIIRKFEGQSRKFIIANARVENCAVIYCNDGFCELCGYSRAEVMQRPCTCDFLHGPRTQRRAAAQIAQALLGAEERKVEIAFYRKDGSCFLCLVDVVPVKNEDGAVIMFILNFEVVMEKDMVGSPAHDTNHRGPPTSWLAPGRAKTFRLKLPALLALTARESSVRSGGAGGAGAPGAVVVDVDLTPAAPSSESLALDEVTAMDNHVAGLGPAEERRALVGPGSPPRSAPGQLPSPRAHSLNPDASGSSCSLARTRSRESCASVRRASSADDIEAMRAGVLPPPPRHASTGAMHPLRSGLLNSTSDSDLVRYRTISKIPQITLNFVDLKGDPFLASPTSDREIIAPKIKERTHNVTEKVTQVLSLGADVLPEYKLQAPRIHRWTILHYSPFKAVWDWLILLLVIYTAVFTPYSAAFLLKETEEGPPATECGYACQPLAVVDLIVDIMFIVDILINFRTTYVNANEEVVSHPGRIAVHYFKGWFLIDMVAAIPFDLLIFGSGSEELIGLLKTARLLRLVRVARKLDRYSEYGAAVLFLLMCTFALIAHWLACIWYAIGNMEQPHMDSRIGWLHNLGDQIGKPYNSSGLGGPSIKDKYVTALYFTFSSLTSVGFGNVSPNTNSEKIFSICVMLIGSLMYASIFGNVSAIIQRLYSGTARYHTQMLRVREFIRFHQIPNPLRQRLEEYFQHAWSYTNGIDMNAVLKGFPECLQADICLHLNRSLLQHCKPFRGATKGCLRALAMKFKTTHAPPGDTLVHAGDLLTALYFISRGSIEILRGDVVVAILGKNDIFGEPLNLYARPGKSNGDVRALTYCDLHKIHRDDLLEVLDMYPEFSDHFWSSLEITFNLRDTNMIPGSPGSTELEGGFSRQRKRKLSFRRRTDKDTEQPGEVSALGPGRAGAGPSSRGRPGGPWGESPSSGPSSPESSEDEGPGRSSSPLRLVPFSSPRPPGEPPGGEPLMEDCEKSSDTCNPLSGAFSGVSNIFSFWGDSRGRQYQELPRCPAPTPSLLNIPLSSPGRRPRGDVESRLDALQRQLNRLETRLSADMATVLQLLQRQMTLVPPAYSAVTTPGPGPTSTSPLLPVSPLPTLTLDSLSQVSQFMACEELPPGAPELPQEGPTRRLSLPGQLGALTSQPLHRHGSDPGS

Row | Compound | hERG current change (%, negative = inhibition) at 10uM
1 | Cc1ccc(C(=O)CC2(O)C(=O)Nc3ccccc32)s1 (centres unmarked) | 30.3%
2 | CCOCCCNCC(O)c1ccccc1.O=C(O)C(=O)O (centres unmarked) | 3.55%
3 | CCN(CC(=O)Nc1cccc(OC)c1)C(=O)c1ccc(C)s1 | -2.47%
4 | COc1cccc(-n2c(SCC(=O)NC3CCCCC3)nc3n[nH]c(C)c3c2=N)c1 | -4.43%
5 | O=C(O)C(=O)O.O=C(c1ccc(F)cc1)N1CCN(C2CCCCC2)CC1 | -62.1%
6 | O=C(Nc1ccc2c(c1)OCCO2)C1CCN(c2ncccn2)CC1 | 26.5%
7 | Cc1c(CC(=O)O)c(=O)oc2cc3oc4c(c3cc12)CCCC4 | 6.56%
8 | Cc1cccc(N2C(=O)CC(N(O)c3ccccc3)C2=O)c1 (centres unmarked) | 9.2%
9 | Cc1nn(C)c(Sc2ccccc2N)c1[N+](=O)[O-] | 10.3%
10 | O=C(c1ccc(NC2=NC3CS(=O)(=O)CC3S2)cc1)N1CCN(C(=O)c2ccco2)CC1 (centres unmarked) | 7.17%
11 | O=C(NCCc1ccccc1)/C(=C\c1ccc([N+](=O)[O-])cc1)NC(=O)c1ccccc1 | -14.6%
12 | COc1ccccc1/C=C/C(=O)NCC(=O)N=Nc1c(O)[nH]c2ccccc12 | 1.93%
13 | CCOc1ccc(NS(=O)(=O)c2ccc(NS(=O)(=O)c3cccs3)cc2)cc1 | 5.59%
14 | COc1nnc(-c2ccc(C)c(S(=O)(=O)N(C)C)c2)c2ccccc12 | -77.6%
15 | Cc1cc(C(=O)N2CCN(c3ncccn3)CC2)cs1 | -15.6%
16 | NS(=O)(=O)c1cccc(NS(=O)(=O)c2ccc3ccccc3c2)c1 | 8.67%
17 | C/C(=C(\C#N)C(=O)NC1CCCCC1)N(C)C | 10.5%
18 | CCOc1ccc(C(=O)OC2CCCN(C)C2)cc1.Cl (centres unmarked) | -18.1%
19 | COC(=O)c1sc(NC(=O)CSc2nnnn2C)nc1C | 3.51%
20 | Cn1cccc1C(=O)NC(=O)CSc1nnc(C2CC2)n1-c1ccccc1 | -2.78%
21 | O=C(Cc1ccccc1)NCC(=O)N/N=C/c1ccc(Cl)cc1 | -20%
22 | CCOC(=O)C1CCN(C(=O)CSC2=NCCS2)CC1 | 23.3%
23 | CCC(=O)c1ccc(OCC(=O)Nc2ccc(N3CCCCC3)cc2)cc1 | 9.23%

Row | Compound | hERG current change (%, negative = inhibition) at 10uM
24 | Cc1c(NC(=O)C(C)OC(=O)Cc2ccccc2)c(=O)n(-c2ccccc2)n1C (centres unmarked) | 9.55%
25 | Cc1ccc2c(c1)C(=O)C(=O)N2CC(=O)OC(C)C | 7.69%
26 | CCOCc1c(C(=O)N2CCN(Cc3ccc(Br)s3)CC2)oc2ccccc12 | -30.9%
27 | CCn1c(SCC(=O)N2CCC(C)CC2)nc2c(c1=O)SC(C)C2 (centres unmarked) | -17.6%
28 | Cc1nn(-c2ccccc2)c(N)c1N=Nc1ccc(Cl)cc1 | 8.47%
29 | COc1ccc(N2CCN(C(=O)[C@@H](NC(=O)c3cc(OC)cc(OC)c3)C(C)C)CC2)cc1 | 7.78%
30 | O=C(CCNS(=O)(=O)c1ccccc1)NCCSc1ccc(Br)cc1 | -0.985%
31 | COc1ccc(-c2nc3ccccc3c(=O)n2-c2ccc(OC)cc2)cc1 | -4.5%
32 | COc1ccc(CC(=O)N/N=C(\C)CC(=O)NCc2ccco2)cc1OC | 15.3%
33 | CC(Cc1ccccc1)/[N+]([O-])=C\c1ccc(C(F)(F)F)cc1 (centres unmarked) | -12.6%
34 | CC(=O)NCc1cn2c(C)csc2n1 | -0.0891%
35 | CCC(=Nc1ccc(OC)cc1OC)c1c(O)n(C)c(=O)n(C)c1=O | -11.8%
36 | C/C(CC(=O)Nc1ccccn1)=N\NC(=O)c1ccccc1O | 6.73%
37 | Cc1ccc(S(=O)(=O)N2CCC(C(=O)Nc3ccncc3)CC2)cc1 | -37.9%
38 | O=C(NCc1ccccc1)C(c1ccc(F)cc1)N(Cc1ccco1)C(=O)c1ccccn1 (centres unmarked) | -24.4%
39 | O=C(CSc1nc2c(sc3ccccc32)c(=O)n1-c1ccccc1)NCc1ccco1 | -0.123%
40 | CC[n+]1c(/C=C(\C)SC)sc2ccccc21.COS(=O)(=O)[O-] | 3.25%
41 | CCn1c(SCC(=O)Nc2cccc(C(C)=O)c2)nnc1C(C)C | 3.82%
42 | N#CC(c1cccnc1)N1CCOCC1 (centres unmarked) | 14.5%
43 | O=C(CNc1cccc([N+](=O)[O-])c1)N/N=C/c1ccc(F)cc1 | 5.79%
44 | CCn1cnc2sc(-c3ccccc3)cc2c1=O | -0.663%
45 | CC(=O)c1cccc(NC(=O)CO/N=C2/CCCc3nonc32)c1 | -0.684%
46 | Cc1cc(C)c(C(=O)NCC2CCCO2)c(C)c1C(=O)NCC1CCCO1 (centres unmarked) | 20%

Row | Compound | hERG current change (%, negative = inhibition) at 10uM
47 | CC(C)(C)c1ccc(C(=O)NCc2nnc(SCC(=O)N3CCCc4ccccc43)n2-c2ccccc2)cc1 | -4.65%
48 | Cn1nc(-c2ccc(C(=O)Nc3cccnc3)cc2)c2ccccc2c1=O | -9.84%
49 | COC(=O)Cc1[nH]nc2c1C(c1ccc(O)c(OC)c1)C(C#N)=C(N)O2 (centres unmarked) | 6.72%
50 | CCC(=O)c1ccc(O)c(CC=C(C)C)c1 | -4.05%
51 | Cc1ccc(-n2c(SCC(=O)O)nc3c(sc(=S)n3-c3ccc(C)c(C)c3)c2=O)cc1 | 14%
52 | Cc1cc(OCC(=O)NC(Cc2ccc(Cl)cc2)C(=O)O)c2c3c(c(=O)oc2c1)CCCC3 (centres unmarked) | 12.6%
53 | O=S(=O)(Nc1ccc(-c2ccc3nncn3n2)cc1)c1cccs1 | 15.4%
54 | NC(=O)c1cc([N+](=O)[O-])ccc1NCc1cnccn1 | -12.9%
55 | Cc1cc(C)cc(NC(=O)N2CCC(NC(=O)c3ccco3)CC2)c1 | 4.34%
56 | CCCc1nc2ccc(Br)cc2c(=O)n1-c1ccc([N+](=O)[O-])c(C(F)(F)F)c1 | -0.855%
57 | CC1=CC2=NC(=O)/C(=C\c3cccn3CCOc3cc(C)cc(C)c3)C(=N)N2O1 | -12.2%
58 | Cc1ccc2c(c1)C1CN(C)CCC1N2S(=O)(=O)c1cc(C(F)(F)F)ccc1Cl (centres unmarked) | -27.6%
59 | Cc1nc(CSc2nnc(N)s2)cs1 | 13.7%
60 | CC1CCCC(NC(=O)c2n[nH]c(=O)c3ccccc23)C1C (centres unmarked) | 0.344%
61 | O=C(CSc1nnc(-c2ccccn2)o1)Nc1ccccc1 | -8.45%
62 | O=S(=O)(Nc1cccc(-c2ccc3nncn3n2)c1)c1ccccc1F | -2.04%
63 | Cc1cccc(Nc2nnc(SCC(=O)NCc3cccs3)s2)c1C | -26.2%
64 | O=S(=O)(N/N=C/c1ccc(N2CCOCC2)cc1)c1ccccc1 | -14.8%
65 | Cc1cccc(NC(=O)NC(C)CCc2ccccc2)c1 (centres unmarked) | -12.5%
66 | O=C(NCCc1ccccc1)C1CCCN(C(=O)Nc2ccc(F)cc2)C1 (centres unmarked) | -11.9%
67 | CN=Cc1nc(-c2ccccc2)oc1O | 14.4%
68 | CC1=CC(C)(C)Nc2ccc(C)cc21 | -58.1%
69 | O=C(Nn1cc(C(=O)Nc2ccccc2F)c2ccccc2c1=O)c1cnccn1 | 1.52%

Row | Compound | hERG current change (%, negative = inhibition) at 10uM
70 | CCOc1ccccc1CN1CCN(Cc2ccc3cc(F)ccc3n2)CC1CCO (centres unmarked) | -65.7%
71 | CC1CCC(C(C)C)C(OC(=O)C2=C3c4ccccc4S(=O)(=O)N3CC2)C1 (centres unmarked) | 12.3%
72 | CCN(CC(=O)NCc1ccncc1)S(=O)(=O)c1ccccc1 | 5.51%
73 | Cc1c(CCOC(=O)c2ccccc2)sc[n+]1Cc1ccccc1.[Cl-] | -32.7%
74 | CC1(C)CC(=O)c2c(Cc3ccccc3)n[nH]c2C1 | -1.48%
75 | COCCNC(=S)NCc1cccs1 | 21%
76 | O=c1[nH]c(Cc2cccs2)nc2ccccc12 | 3.61%
77 | CCNC(=O)CSC1=N/C(=C\c2ccc(O)c(OCC)c2)C(=O)N1c1ccc(OC(F)F)cc1 | 6.33%
78 | CC(NC(=O)c1cn(C(C)c2ccccc2F)nn1)c1ccncc1 (centres unmarked) | 11.9%
79 | O=C1CC(N2CCN(c3ccccc3)CC2)C(=O)N1c1ccc(Cl)cc1 (centres unmarked) | 10.9%
80 | COCCn1c(SCC(=O)Nc2ccc(C(N)=O)cc2)nc2c([nH]c3ccccc32)c1=O | 15.2%
81 | CC1=NN(C(=O)CCCc2ccccc2)C(O)(C(F)(F)F)C1 (centres unmarked) | 2.65%
82 | Cl.N=c1sccn1CC(=O)Nc1cc(Cl)ccc1[N+](=O)[O-] | 2.64%
83 | O=C(O)c1ccc(NC(=S)NC(=O)c2ccc(-c3ccc(Br)cc3)o2)cc1 | 18.3%
84 | Cc1cc(C)cc(NC(=O)CC23CC4CC(C2)CC(n2nnc(C)n2)(C4)C3)c1 | -36.2%
85 | COc1ccc(OC)c(/C=N/NC(=O)CNC(=O)c2ccc(S(=O)(=O)N3CCOCC3)cc2)c1 | -19.3%
86 | O=S(=O)(Nc1c(O)ccc2ccccc12)c1ccccc1 | -25.1%
87 | COc1ccc(N2C(=O)CCC(C(=O)c3ccccc3)=C2C)cc1 | -11.1%
88 | Cc1c(Cl)c([N+](=O)[O-])nn1CC(=O)N1CCN(C23CC4CC(CC(C4)C2)C3)CC1 | 19.9%
89 | Cc1ccc(C)c(-c2nnc(NC(=O)Cc3ccccc3)o2)c1 | 16.1%
